From the RNAGym collection of RNA variant scans (doi:10.1073/pnas.2313332121)
This sample is rich in variants without activity.

B1: TPR 5TU (parent)
chain: GGAUCUUCUCGAUCUAACAAAAAAGACAAAUCUGCCACAAAGCUUGAGAGCAUCUUCGGAUGCAGAGGCGGCAGCCUUCGGUGGCGCGAUAGCGCCAACGUUCUCAACUAUGACACGCAAAACGCGUGCUCCGUUGAAUGGAGUUUAUCAUG

Variants of: B1
Test: polymerase ribozyme fitness, log enrichment relative to wild type (log ratio); higher = more active; in vitro selection for triplet polymerase activity
Procedure, shortened: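 Genotype fitness is the logarithm of its enrichment divided by wild-type enrichment, using inverse-variance-weighted averages of replicates. That logarithm is base 2. Enrichment was measured by Illumina sequencing of input and output libraries from one triplicate in vitro selection round, with frozen incubation at −7 °C, on PCR-built, transcribed mutant libraries of each subunit of a heterodimeric triplet polymerase ribozyme, retaining genotypes with ≥10 input reads and ≥1 read per output.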

Variant | polymerase ribozyme fitness (log ratio)
GGAUCUUCUCGAUCUAACAAAAAAGACAAAUCUUCCACAAAGCUUGAGGGCAUCUUCGGAUGCAGAGGCGGCAGCCUUCGGUGGCGCGAUAGAGCCAAAGUUCUCAACUAUGACACGCAAAACGCGUGCUCCGUUGAAUGGAGUUUAUCAUG [G34U A49G C93A C99A] | ≤ -4.2
GGAUCUUCUCGAUCUAACAAAAAAGACAAAUCUUCCACAAAGCUUGAGAGCAUCUUCGGAUGCAGCGGCGGCAGCCUUCGGUGGCGCGAUAGCGCCAACGUUCUCAACUAUGACACGCAAAACGCGUGCUCCGUUGAAUGUAGUUUCUCAUG [G34U A66C G141U A147C] | ≤ -4.2
GGAUCUUCUCGAUCUAACAAAAAAGACAAAUCUUCCACAAAGCUUGAGAGAAUCUUCGGAUGCAGAGGCGGCAGCCUUCGGUGCCGCGAUAGCGCCAACGUUCUCAACUAUGACACGCAAAACGCGUGCUCCGUUGAAUGGAGUUUAUCAUG [G34U C51A G84C] | ≤ -4.2
GGAUCUUCUCGAUCUAACAAAAAAGACAAAUCUUCCACAAAGCUUGAGAGCAUCUUCGGAUGUAGAGGCGGCAGCCUUCGGUGGAGCGUUAGCGCCAACGUUCUCAACUAUGACACGCAAAACGCGUGCUCCGUUGAAUGAAGUUUAUCAUG [G34U C63U C85A A89U G141A] | ≤ -4.2
GGAUCUUCUCGAUCUAACAAAAAAGACAAAUCUUCCACAAAGCUUGAGAGCAUCUUCGGAUGCAGAGGCGGCAGCUUUCGGUGGCGCGAUAGCGCCAACGUUCUCAACUAUGACACGCUAAACGCGUGCUCCGUUGAAUGGAGUUUAUCAUG [G34U C76U A119U] | -3.19
GGAUCUUCUCGAUCUAACAAAAAAGACAAAUCUUCCACAAAGCUUGAGAGCAUCUUCGGAUGCAGAGGCGGCAGCCUUGGGUGGCGCGGUAGGGCCAACGUUCUCAACUAUGUCACGCAAAACGCGUGCUCGGUUGAAUGGAGUUUAUCAUG [G34U C79G A89G C93G A113U C132G] | ≤ -4.2
GGAUCUUCUCGAUCUAACAAAAAAGACAAAUCUUCCACAAAGCUUGAGAGCAUCUUCGGAUGCAGAGGCGGCAGCCUUCGGUGGCGCGAUAGCGGCAACGUUCUCAACUAUGACGUGCAAAACGCGUGCUCCGUUGAAUCGAGUUUAUCAAG [G34U C95G A115G C116U G140C U151A] | -4.19
GGAUCUUCUCGAUCUAACAAAAAAGACAAAUCUUCCACAAAGCUUGAGAGCAUCUUCGGAUGCAGAGGCGGCAGCCUUCGGUGGCGCGAUAGCGCGAACGUUCUCAACUAUGACACGCAAAACGCGUGCUCCGUUGAAUGGAGUUUAUCAUG [G34U C96G] | -2.91
GGAUCUUCUCGAUCUAACAAAAAAGACAAAUCUUCCACAAAACUUGAGAGCAACUACGGAUGCAGAGGCGGCAGCCUUCGGUGGCGCGAUAGCGCCAACUUUCUCAAGUAUGACACGCAAAACGCGUGCUCCGUCGAAUGGAGAUUAUCAUG [G34U G42A U53A U56A G100U C108G U135C U144A] | ≤ -4.2
GGAUCUUCUCGAUCUAACAAAAAAGACAAAUCUUCCACAAAGCUUGAGAGCAUCUUCUGAUGCAGAGGCGGCAUCCUUCGAUGGCGCGAUAGCGCCAACGUACCCAACUAUGACACGCAAAACGCGUGCUCCGUUGAAUGGAGUUUAUCAUG [G34U G58U G74U G81A U102A U104C] | ≤ -4.2
GGAUCUUCUCGAUCUAACAAAAAAGACAAAUCUUCCACAAAGCUUGAGAGCAUCUUCGGAUGCAGAAGCGGCAGCUUUCGGUGGAGCGAUAGCGCCAACGUUCUCAACUAUGACACGCAAAACGCGUGCUCCGUUGAAUGGAGUUUAUCAUG [G34U G67A C76U C85A] | ≤ -4.2
GGAUCUUCUCGAUCUAACAAAAAAGACAAAUCUUCCACAAAGCUUGAGAGCAUCUUCGGAUGCAGAGGCGGCAACCUUCGGUGGCGCGAUAGCGCAAACGUUCUCAACUAUGACACGCAAAACGCAUGCUCCGUUGAAUGGAGUUUAUCAUG [G34U G74A C96A G126A] | ≤ -4.2
GGAUCUUCUCGAUCUAACAAAAAAGACAAAUCUUCCACAAAGCUUGAGAGCAUCUUCGGAUGCAGAGGCGGCAGCCUUCGGUCGCGCGAUAGCGCCAACGUUCUCAACUAUGACACGCAAAACGCGUGCUCCGUUGAAUGGAGUGUAUCAUG [G34U G83C U145G] | ≤ -4.2
GGAUCUUCUCGAUCUAACAAAAAAGACAAAUCUUCCACAAAGCUUGAGAGCAUCUUCGGAUGCAGAGGCGGCAGCCUUCGGUGGCGCGAUAGCACCAACGUUCUCAACUAUGACACGCAAAACGCGUGCUCCGUUGAAUGGAGUUUAUCAUG [G34U G94A] | -2.37
GGAUCUUCUCGAUCUAACAAAAAAGACAAAUCUUCCACAAAGCUUGAGAGCAUCAUCGGAUGCAGAGGCGGCAGCCUUCGGUGGUGCGAUAGCGCCAACGUUCUGAACUAUGACACGCAAAACGCGUGCUCCGUUGAAUGGAGUUUAUCAUG [G34U U55A C85U C105G] | ≤ -4.2
GGAUCUUCUCGAUCUAACAAAAAAGACAAAUCUUCCACAAAGCUUGAGAGCAUCUUCGGAUGCAGAGGCGGCAGCCGUCGGUGGCGAGAUAGCGCCAACGUUCUCAACUAUGCCACGCAAAACGCGUGCUCCGUUGAAUGGAGUUUAUCAUG [G34U U77G C87A A113C] | ≤ -4.2
GGAUCUUCUCGAUCUAACAAAAAAGACAAAUCUGACACCAAGCUUGAGAGCAUCUUCGGAUGCAGAGGCGGCAGCCUUCGGUGGCGCGAUUGCGCCAACGUUCUCAACUAUGACACGCAAUACGCGUGCUCCGUUGAAUGGAGUUUAUCAUG [C35A A39C A91U A121U] | ≤ -4.2
GGAUCUUCUCGAUCUAACAAAAAAGACAAAUCUGACACAAGGCUUGAGAGCAUCAUCGGAUGCAGAGGCGGCAGCGUUCGGUGGCGCGACAGCGCCAACGUUCUCAACUAUGACACGCAAAACGCGUGCUCCGUUGAAUGGAGUUUAUCAUG [C35A A41G U55A C76G U90C] | ≤ -4.2
GGAUCUUCUCGAUCUAACAAAAAAGACAAAUCUGACACAAAGCUUGAGAGCCUCUUCGGAUGCAGAGGCGGCAGCCUUCGGUGGCGCGAUAGUGCCUACGUUCUCUACUAUGACACGCAAAACGCGUGCUCCGUUGAAUGGAGUGUAUAAUG [C35A A52C C93U A97U A106U U145G C149A] | ≤ -4.2
